Hit rate of the full screen: of about 39,000 compounds, about 220 (0.56%) showed activity. The list shows a part of the results.
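Note: static incubation at 37 °C against the wild-type strain, values averaged over two biological replicates.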

In this assay the test system is Escherichia coli K-12 BW25113. As to the kind of experiment: relative growth (OD600 normalised to plate interquartile mean) (fraction); higher = less growth inhibition, active = 0.2 or less. As to conditions: 50 µM; LB; incubation time: overnight (16-24 h).
As for `C[C@]12C[C@@H](O)[C@@H]3C[C@@]1(O[C@@H]1O[C@H](CO)[C@@H](O)[C@H](O)[C@H]1O)[C@@]3(COC(=O)c1ccccc1)C(=O)O2`, the relative growth is inactive: 1.03. Consider `C[C@H]1CN([C@@H](C)CO)C(=O)Cc2cc(NS(C)(=O)=O)ccc2O[C@@H]1CN(C)C(=O)Nc1ccc(F)cc1`, for which the relative growth is inactive: 0.996.

Consider `CNC(=O)CN(CCN(CCN(CC(=O)[O-])CC(=O)NC)CC(=O)[O-])CC(=O)[O-].[Gd]`, for which the relative growth was inactive: 1.15. As to `C[C@H](NC(=O)C[C@@H]1CC[C@@H](NC(=O)CN2CCOCC2)[C@@H](CO)O1)c1ccccc1`, the relative growth is inactive: 0.968. With `COc1ccccc1S(=O)(=O)N1C[C@@H](O)COC[C@@H]2O[C@@H](CC(=O)O)CC[C@H]21`, the relative growth is inactive: 0.965. With `C[C@H](CO)N1C[C@H](C)[C@@H](CN(C)C(=O)Nc2ccc(F)cc2)OCCCC[C@H](C)Oc2ccc(NS(=O)(=O)c3ccc(F)cc3)cc2C1=O` the figure was inactive: 1.01; with `COCC#Cc1cnc2c(c1)C(=O)N([C@H](C)CO)C[C@H](C)[C@H](CN(C)C(=O)c1ccc3c(c1)OCO3)O2`, inactive: 0.983; with `COc1ccc(CN(C)C[C@@H]2Oc3c(NC(=O)Nc4ccc(C(F)(F)F)cc4)cccc3C(=O)N([C@H](C)CO)C[C@@H]2C)cc1`, inactive: 0.995. In the case of `C[C@@H]1CN([C@@H](C)CO)C(=O)Cc2cc(NC(=O)Cc3cn(C)c4ccccc34)ccc2O[C@H]1CN(C)S(C)(=O)=O`, the relative growth is inactive: 0.936. As for `Clc1ccc(Cn2ccnc2)cc1`, the relative growth is inactive: 0.941. Regarding `NC1=NC(=O)[C@@H]2N=C(Br)N([C@H]3O[C@H]4COP(=O)(O)O[C@@H]4[C@@H]3O)[C@H]2N1`, the relative growth is inactive: 1.03. Turning to `CCN1CCN(C(=O)CN2C(=O)c3ccccc3S2(=O)=O)CC1`, the relative growth was inactive: 0.989. With `CC(C)NC(=O)Nc1ccc2c(c1)CC(=O)N([C@H](C)CO)C[C@@H](C)[C@@H](CN(C)C(=O)NC1CCCCC1)O2` the figure was inactive: 0.953; with `CCC(=O)N1CCC[C@@H]1C(=O)O`, inactive: 1.01. As to `CC1c2cccc(O)c2C(=O)C2=C(O)C3(O)C(=O)C(C(N)=O)=C(O)C(N(C)C)C3C(O)C21.Cl` (centres undefined), the relative growth was active: 0.0595.

For `C[C@H](CO)N1C[C@H](C)[C@H](CN(C)C(=O)NC2CCCC2)Oc2cc(-c3cccnc3)ccc2S1(=O)=O`, the relative growth is inactive: 0.993. As to `COc1ccccc1CNC(=O)C[C@H]1C[C@H]2c3cc(NC(=O)C4CCOCC4)ccc3O[C@H]2[C@@H](CO)O1`, the relative growth is inactive: 1. For `C[C@H]1CN([C@@H](C)CO)C(=O)Cc2cc(NC(=O)Nc3cccc4ccccc34)ccc2O[C@H]1CN(C)Cc1ccc(C(=O)Nc2ccccc2N)cc1`, the relative growth was inactive: 1.03.

As for `C[C@H]1CN([C@@H](C)CO)C(=O)c2cc(NC(=O)Cn3cnnn3)ccc2O[C@@H]1CN(C)C(=O)Nc1ccc(F)cc1`, the relative growth was inactive: 1.04. For `COc1ccc(CN(C)C[C@@H]2OCCCC[C@@H](C)Oc3ccc(NC(=O)NC(C)C)cc3C(=O)N([C@@H](C)CO)C[C@H]2C)cc1`, the relative growth was inactive: 0.994.

For the compound `C[C@@H]1CN([C@@H](C)CO)C(=O)Cc2cc(NC(=O)Cc3ccccc3)ccc2O[C@H]1CN(C)S(=O)(=O)c1ccc(F)cc1`, the relative growth was inactive: 1.01.

Take `Cc1noc(C)c1NC(=O)N(C)C[C@H]1OCCCC[C@@H](C)Oc2ccc(NS(=O)(=O)c3cccs3)cc2C(=O)N([C@@H](C)CO)C[C@H]1C`: the relative growth is inactive: 1.

With `CC(=O)NCCOc1ccc(C(=O)O)cc1`, the relative growth is inactive: 0.924. As to `COc1ccc(S(=O)(=O)N(C)C[C@@H]2Oc3c(NC(=O)NC(C)C)cccc3C(=O)N([C@@H](C)CO)C[C@H]2C)cc1`, the relative growth was inactive: 0.992. Consider `C[C@H]1CN([C@@H](C)CO)S(=O)(=O)c2ccc(C#CCN(C)C)cc2O[C@@H]1CN(C)C(=O)c1ccccc1F`, for which the relative growth is inactive: 0.996.

With `C[C@H](CO)N1C[C@H](C)[C@@H](CN(C)C(=O)Nc2ccc(F)cc2)Oc2ccc(NC(=O)CCCCCC(=O)Nc3ccccc3N)cc2C1=O`, the relative growth is inactive: 0.985. As to `N#CC1(C#N)[C@H](c2ccccc2)[C@@H]1C(N)=O`, the relative growth was inactive: 0.986. Consider `C[C@@H]1CCCCO[C@@H](CN(C)Cc2ccccc2)[C@H](C)CN([C@H](C)CO)C(=O)c2cc(NS(=O)(=O)c3ccc(Cl)cc3)ccc2O1`, for which the relative growth was inactive: 1.03. As for `COc1ccc(NC(=O)N(C)C[C@H]2Oc3ccc(NC(=O)Nc4cccc5ccccc45)cc3CC(=O)N([C@@H](C)CO)C[C@H]2C)cc1`, the relative growth is inactive: 0.973. The result for `C[C@@H]1CCCCO[C@H](CN(C)C(=O)c2ccncc2)[C@H](C)CN([C@@H](C)CO)C(=O)c2cc(NS(=O)(=O)c3cn(C)cn3)ccc2O1` reads inactive: 1. For `COCC(=O)Nc1ccc2c(c1)C(=O)N(C)C[C@H](OC)[C@@H](C)CN(C(=O)Cc1cccnc1)[C@@H](C)CO2`, the relative growth was inactive: 0.984. Take `C[C@@H]1CCCCO[C@H](CN(C)S(=O)(=O)c2ccc(F)cc2)[C@@H](C)CN([C@@H](C)CO)C(=O)c2cc(NC(=O)CCC(F)(F)F)ccc2O1`: the relative growth was inactive: 1.

Turning to `C[C@H]1CC/C=C\[C@H]2O[C@@]34C=CCN(CCN5CCOCC5)C(=O)[C@H]3N(CCCO)C(=O)[C@@H]4[C@@H]2C(=O)O1`, the relative growth is inactive: 0.925. For the compound `O=C(CN1CCOCC1)N[C@H]1CC[C@@H](CCn2cc(C3CCCC3)nn2)O[C@@H]1CO`, the relative growth was inactive: 0.998. Regarding `C[C@@H]1CN([C@@H](C)CO)C(=O)c2cccc(NC(=O)C3CC3)c2O[C@@H]1CN(C)S(=O)(=O)c1cccs1`, the relative growth was inactive: 1.01. Regarding `CN1C(=O)c2cc(NC(=O)c3cnccn3)ccc2OC[C@H]2O[C@H](CC(=O)NCC3CCCCC3)CC[C@H]21`, the relative growth was inactive: 0.97. For `C[C@@H]1CN([C@@H](C)CO)C(=O)c2cccc(NC(=O)Nc3ccccc3)c2O[C@@H]1CN(C)S(C)(=O)=O`, the relative growth is inactive: 0.996.

As for `C[C@@H]1CCCCO[C@@H](CN(C)Cc2ccncc2)[C@H](C)CN([C@@H](C)CO)C(=O)c2cc(NC(=O)c3ccccc3)ccc2O1`, the relative growth was inactive: 1.

In the case of `C[C@@H]1CN([C@H](C)CO)C(=O)c2c(c3ccccc3n2C)-c2ccccc2CO[C@@H]1CN(C)Cc1cccc2c1OCCCO2`, the relative growth is inactive: 1.03.

Values taken from the supplement of paper PMC9446081.
